# Measurements published in PubChem BioAssay AID504832 (National Center for Advancing Translational Sciences (NCATS), 2011).
# Values joined by “and” are separate entries in the source; they are usually repeats but may differ in a detail not shown here. Equal entries are not always repeated. In all, about 310,000 compounds went through this assay and about 18,000 (5.8%) were called active. Inconclusive means that the source gave no clear call. Such entries were picked first, then a sample of the others. Calls follow the shape of the dose curve; as a rule, active = well fitted inhibition curve with a large enough effect; inconclusive = small, poorly fitted or top-dose-only effect, or another doubt; inactive = no such curve, though single readings can be large or run the other way. Potencies of inconclusive entries are doubtful fits and often do not repeat.
# Assay: Primary qHTS for delayed death inhibitors of the malarial parasite plastid, 48 hour incubation
# Conditions: P. falciparum luciferase growth in erythrocytes; series mostly up to 28.7 µM
# How it was run: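 Cell-based growth assay: transgenic P. falciparum expressing firefly luciferase, cultured in red cells within RPMI 1640 containing 0.5% w/v Albumax, 24 mM bicarbonate and gentamycin. A drop in luciferase activity indicates inhibition.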
# Potency is read from the fitted curve at half-maximal effect; tags tell the direction and shape of the fitted curve.
row,SMILES,Potency
1,CCCS(=O)(=O)N1CCC(C(=O)NCCN(CC)c2ccccc2)CC1,inactive
2,CCOc1ccc(S(=O)(=O)N(C)c2ccc(OCC(=O)OCc3c(C)noc3C)cc2)cc1,"inconclusive: 0.828 µM [inhibitor, partial curve, poor fit]"
3,CS(=O)(=O)c1ccc(C(=O)Nc2cc(S(C)(=O)=O)ccc2Cl)cc1,inactive
4,C=CCn1c(=O)c2ccccc2n2c(SCc3nnc(-c4ccccc4Br)o3)nnc12,"inconclusive: 8.28 µM [inhibitor, partial curve]"
5,Cc1cc(NC(=S)NC(=O)/C=C/c2ccc(S(=O)(=O)N3CCOCC3)cc2)ccc1Br,"inconclusive: 13.1 µM [inhibitor, single point]"
6,C=CCn1c(SCC(=O)NC(=O)NCCC)nnc1C1CCCCC1,"inconclusive: 0.0033 µM [inhibitor, full curve, poor fit]"
7,Cc1c(O)ccc(/C(Cc2ccc3ccccc3n2)=N\N)c1O,"inconclusive: 18.5 µM [inhibitor, single point]"
8,Cc1csc(C(=O)O)c1-c1c(C)csc1C(=O)O,inactive
9,Cc1ccc(CN2C(=O)N/C(=C/c3cc(C)n(-c4ccccn4)c3C)C2=O)cc1,"inconclusive: 11.7 µM [inhibitor, single point]"
10,O=[N+]([O-])c1ccc(-[n+]2nc(-c3ccccc3)nn2-c2ccccc2)cc1,"inconclusive: 2.62 µM [inhibitor, full curve]"
11,COc1cc(/C=N/Nc2nc(Nc3ccccc3)nc(-n3nc(C)cc3C)n2)cc(OC)c1OC,active: 3.29 µM
12,COC(=O)c1cn(NC(=O)/C=C/c2cc(OC)ccc2OC)c(=O)c2ccccc12,"inconclusive: 13.1 µM [inhibitor, single point]"
13,C=CCn1c(O)c(C(CC)=Nc2cc(OC)ccc2OC)c(=O)[nH]c1=O,"inconclusive: 18.5 µM [inhibitor, single point]"
14,Cc1ccc(C)n1NC(=O)c1ccccc1[N+](=O)[O-],inactive
15,CNCCCN1c2ccccc2CCc2ccccc21,"inconclusive: 6.42 µM [inhibitor, single point] and inconclusive: 13.1 µM [inhibitor, single point]"
16,O=C(CNc1cc(S(=O)(=O)N2CCCC2)ccc1OCC(F)(F)F)Nc1ccc(SC(F)F)cc1,"inconclusive: 10.4 µM [inhibitor, partial curve, poor fit]"
17,COc1ccc(CCNC(=O)CNS(=O)(=O)c2ccc(N(C)C)c([N+](=O)[O-])c2)cc1OC,"inconclusive: 6.57 µM [inhibitor, partial curve, poor fit]"
18,Cc1cc(C)c(S(=O)(=O)N(C)CC(=O)N2CCCCC2)c(C)c1,"inconclusive: 0.037 µM [inhibitor, full curve, poor fit]"
19,O=S(=O)(c1ccccc1)N1CCN(c2nnc(-c3ccccc3)c3ccccc23)CC1,"inconclusive: 5.22 µM [inhibitor, partial curve, poor fit]"
20,Cc1cc(C)c(S(C)(=O)=O)c(Oc2ccccc2C)n1,"inconclusive: 0.0928 µM [inhibitor, full curve, poor fit]"
21,COC(=O)C1=C(c2ccc(-c3ccccc3)c(F)c2)C[C@@H]2CC[C@H]1N2C(=O)NCC1CC1,active: 4.65 µM
22,CCOc1cc(N2CCOCC2)c(OCC)cc1NC(=O)COc1cccc(CC)c1,active: 10.4 µM
23,COC(=O)c1cc(C(=O)NC(C)C2CC3CCC2C3)cc([N+](=O)[O-])c1 (stereo not given),"inconclusive: 20.8 µM [inhibitor, single point]"
24,O=C(C1=C[C@H](c2ccc(Br)cc2)C[C@H](OCc2ccc(CO)cc2)O1)N1CCN(Cc2ccc3c(c2)OCO3)CC1,"inconclusive: 1.31 µM [inhibitor, full curve, poor fit]"

row,SMILES,Potency
1,CCOC(=O)CN1C(=O)CN(c2ccc(C)cc2)C1=O,inactive
2,O=C(Nc1ccccc1C(=O)N1CCN(Cc2ccccc2)CC1)c1ccc(F)cc1,"inconclusive: 11.7 µM [inhibitor, single point]"
3,CSc1ccccc1NC(=O)C1=CC(c2cccs2)=NS(=O)(=O)N1C,"inconclusive: 18.5 µM [inhibitor, single point]"
4,N#Cc1nc(Cc2cccc3ccccc23)oc1NCCN1CCCCC1,"inconclusive: 1.04 µM [inhibitor, full curve, poor fit]"
5,COc1cc(CNc2ccc(N3CCCC3)cc2)ccc1OCc1ccccc1F,"inconclusive: 4.65 µM [inhibitor, partial curve, poor fit]"
6,COC(=O)[C@@H](NC(=O)N1CCC(C)CC1)C(C)C,"inconclusive: 18.5 µM [inhibitor, single point]"
7,COc1ccc(S(=O)(=O)N(C)C)cc1NC(=O)CSc1nncs1,inactive
8,COc1ccc(-c2noc(CCC(=O)NCCc3ccccc3)n2)cc1OC,"inconclusive: 9.28 µM [inhibitor, partial curve, poor fit]"
9,Cc1cccc(-n2cc(-c3ccccc3)c3c(NN4CCOCC4)ncnc32)c1,"inconclusive: 18.5 µM [inhibitor, single point]"
10,CCOc1ccc(NC(=O)Nc2cccn(Cc3ccccc3)c2=O)cc1,inactive
11,CCn1c(CN2CCOCC2)nnc1SCC(=O)Nc1ccc(C(C)=O)cc1,"inconclusive: 18.5 µM [inhibitor, single point]"
12,CCOc1ccc(C(C)=O)cc1CN1C(=O)NC2(CCCCC2C)C1=O (stereo not given),"inconclusive: 18.5 µM [inhibitor, single point]"
13,Cn1cc(CNCC2CCCO2)c(-c2ccc(Oc3ccccc3)cc2)n1 (stereo not given),"inconclusive: 0.828 µM [inhibitor, full curve, poor fit]"
14,CCCOC(=O)c1ccc(NC(=O)C(=O)NCCN(CC)CC)cc1,inactive
15,COc1ccc(CC(=O)N(Cc2ccccc2)c2ccc(C)cc2)cc1OC,inactive
16,CCCc1nc(N)sc1C(=O)OCC,inactive
17,O=c1c2c3c(sc2n(CCN2CCCC2)c(=O)n1Cc1ccccc1)CCCCC3,"inconclusive: 11.7 µM [inhibitor, single point]"
18,CCN(C(=O)COC(=O)CNC(=O)c1sc2ccccc2c1Cl)C1CCCCC1,inactive
19,Cc1cccc(OCC(=O)N/N=C\c2cccn2C)c1C,inactive
20,Cc1ccc(S(=O)(=O)N2CC(O)CC2C(=O)OCC(=O)c2ccccc2Cl)cc1C (stereo not given),inactive
21,Cc1ccc(NC(=O)c2cc(S(=O)(=O)N3CCc4ccccc43)cn2C)cc1,"inconclusive: 9.28 µM [inhibitor, single point]"
22,O=C1CCC/C1=c1\s/c(=C\c2cccnc2)c(=O)n1-c1ccccc1,"inconclusive: 18.5 µM [inhibitor, single point]"
23,Cc1cccc(N2CCN(C(=O)c3cc(S(=O)(=O)N4CCCC4)cn3C)CC2)c1C,active: 9.28 µM
24,CCN1CCc2nc3sc(C(=O)N4CCc5ccccc5C4)c(N)c3cc2C1,"inconclusive: 13.1 µM [inhibitor, single point]"

row,SMILES,Potency
1,CN(C(=O)COC(=O)c1c2c(nc3ccccc13)/C(=C/c1cccc([N+](=O)[O-])c1)CCC2)C1CCS(=O)(=O)C1 (stereo not given),"inconclusive: 18.5 µM [inhibitor, single point]"
2,CCOC(=O)c1nnn(-c2nonc2N)c1CN1CCCC1,inactive
3,CC(=O)c1c(C)[nH]c(C(=O)OCc2cc(=O)n3cc(Br)ccc3n2)c1C,inactive
4,COc1ccc(CN2CCCCC2C(=O)Nc2ccc(OC)c(OCC(C)C)c2)cc1OC (stereo not given),inactive
5,CCOC(=O)C(CC(C)C)CP(=O)(O)CNC(=O)OCc1ccccc1 (stereo not given),inactive
6,COC(=O)c1c(NC(=O)c2ccccc2C(=O)O)sc2c1CCC2,inactive
7,CCOC(=O)N1CCc2c(sc3ncn(Cc4ccc(F)cc4)c(=O)c23)C1,active: 10.4 µM
8,COc1ccc(-c2ccoc2)cc1[C@H]1[C@H]2C=CC[C@@H](C)[C@@H]2C(=O)N1Cc1ccccc1,active: 10.4 µM
9,C/C(Cl)=C/Cc1c(C)[nH]c2ccc(C)cc2c1=O,active: 0.37 µM
10,CSc1nc(N(C)C)nc(N2CC(=O)N(CCNS(=O)(=O)c3ccc(C)cc3)C2=N)n1,"inconclusive: 6.57 µM [inhibitor, partial curve]"
11,O=c1[nH]c2cccnc2n1-c1cccc([N+](=O)[O-])c1,inactive
12,NNC(=O)C1CC1c1ccc(Cl)cc1 (stereo not given),inactive
13,COc1ccc(-c2cc(-c3nnc(COC(=O)C4CC4)o3)c3ccccc3n2)cc1OC,"inconclusive: 11.7 µM [inhibitor, single point]"
14,Cc1ccsc1C1C(C(=O)O)c2ccccc2C(=O)N1C (stereo not given),"inconclusive: 0.0131 µM [inhibitor, full curve, poor fit]"
15,COc1ccc(C(=O)N2CCN(c3nc(C4CC4)nc4sc(C)c(C)c34)CC2)cc1,active: 11.7 µM
16,Cc1ccc(NC(=O)c2nn(C34CC5CC(CC(C5)C3)C4)cc2[N+](=O)[O-])cc1,"inconclusive: 1.17 µM [inhibitor, full curve, poor fit]"
17,CN(CC(=O)N1CCN(c2ccc(F)cc2)CC1)S(=O)(=O)c1ccc(F)cc1,inactive
18,CC(=O)c1sc2nc(C)cc(C)c2c1N,inactive
19,COc1ccc(-n2cc(CN3CCC(OC)CC3)c(-c3cccc(F)c3)n2)cc1,active: 10.4 µM
20,COC(=O)c1ccc(CNC(=O)COC(=O)c2ccccc2-c2ccccc2)cc1,"inconclusive: 18.5 µM [inhibitor, single point]"
21,CCN1CCN(Cc2ccc(NC(=O)Nc3ccc(SC)cc3)cc2)CC1,active: 1.65 µM
22,CCOC(=O)C1(CCCc2ccccc2)CCN(C(=O)c2cc(C)nn2CC)CC1,"inconclusive: 10.4 µM [inhibitor, partial curve]"
